# Laboratory results: PubChem BioAssay AID624417 (National Center for Advancing Translational Sciences (NCATS), 2012)
# Among all 410,000 compounds or so, about 6,400 (1.6%) were called active. Inconclusive means that the source gave no clear call. Such entries were picked first, then a sample of the others. The call rests on the fitted dose curve; in most records, active means well fitted inhibition curve with a large enough effect; inconclusive means small, poorly fitted or top-dose-only effect; inactive means no such curve, though single readings can be large or run the other way. Potencies of inconclusive entries are left out as doubtful fits.
# Molecular target: Glucagon-like peptide 1 receptor (Homo sapiens) (UniProt P43220)
# Chain of UniProt P43220 (P43220 whole entry, looked up): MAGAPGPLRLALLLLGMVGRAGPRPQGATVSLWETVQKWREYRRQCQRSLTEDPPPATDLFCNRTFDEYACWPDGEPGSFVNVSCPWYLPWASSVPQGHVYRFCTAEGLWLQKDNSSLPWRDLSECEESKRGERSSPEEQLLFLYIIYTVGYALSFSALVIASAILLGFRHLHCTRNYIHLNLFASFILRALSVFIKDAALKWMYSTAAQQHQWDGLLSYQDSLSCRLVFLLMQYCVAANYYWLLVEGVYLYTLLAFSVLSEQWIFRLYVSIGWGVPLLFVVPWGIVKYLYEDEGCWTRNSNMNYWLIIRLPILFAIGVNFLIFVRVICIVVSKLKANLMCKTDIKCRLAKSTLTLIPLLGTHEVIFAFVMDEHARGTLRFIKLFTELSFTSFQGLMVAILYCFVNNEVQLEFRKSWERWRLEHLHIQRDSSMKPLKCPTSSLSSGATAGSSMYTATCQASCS
# Experiment: qHTS of GLP-1 Receptor Inverse Agonists (Inhibition Mode); further: nearly all actives have a fitted effect of over 55% in size
# Conditions: HEK293 GLP-1R CRE-luciferase, luminescence, 24 h, GLP-1R form is constitutively active; activity change, negative = inhibition: at 38.3 µM (top of the series) unless noted
# How it was run: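 Seeding at 200 cells/uL, 12 h culture, 24 hr compound treatment, then luciferase reagent and a luminescence read; cells are HEK293 stably expressing a constitutively active GLP-1R plus cAMP-responsive luciferase.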
# On the % scale 0 is the no-effect control and ±100 the full control effect; potency means the concentration at half of the fitted maximal effect; tags describe the fitted curve by direction and shape.
Structure (SMILES),Potency,"activity change, negative = inhibition"
CC1(C(=O)NS(=O)(=O)c2ccc(C#N)cc2)CCN1C(=O)C1(c2ccc(Cl)cc2)CCC1 (stereo unspecified),"inconclusive [inhibitor, partial curve, poor fit]",–
COc1cc(/C=C/c2ccc3cccc(O)c3n2)cc(OC)c1OC,"inconclusive [inhibitor, full curve, poor fit]",–
O=C(Nc1ccccc1)c1cccc(N2CCCS2(=O)=O)c1,–,inactive: 6.26%
COc1cccc(C(=O)Nc2cccc(-c3nnc(-c4ccco4)o3)c2)c1,"inconclusive [inhibitor, partial curve, poor fit]",–
CC1CCC(NC(=O)c2ccc(CSc3nc4ccncc4n3Cc3ccc(F)cc3)cc2)CC1 (stereo unspecified),"inconclusive [inhibitor, single point]",–
CC(C)OCCCNC(=O)COc1ccc2oc3c(c2c1)CCCC3,"inconclusive [inhibitor, partial curve, poor fit]",–
CCCCCCCCN1C(=O)[C@H](CC(=O)NCc2cccc3ccccc23)C[C@@]2(C(=O)OCC)CCCC=C12,"inconclusive [inhibitor, partial curve, poor fit]",–
Cc1onc(-c2ccccc2Cl)c1C(=O)OCC(=O)N1CCCCC1,"inconclusive [inhibitor, single point]",–
Cc1ccc(S(=O)(=O)c2cn(Cc3ccccc3)c3cc(N4CCOCC4)c(F)cc3c2=O)cc1,–,inactive: 13%
COc1cccc(NC(=S)N(CCc2c(C)[nH]c3ccccc23)Cc2ccco2)c1,"inconclusive [inhibitor, partial curve, poor fit]",–
CCOC(=O)[C@@H]1[C@H]2COc3ccccc3[C@H]2N2C(=O)N(c3ccc(C(F)(F)F)cc3)C(=O)[C@]12C,"inconclusive [inhibitor, single point]",–
NC(c1ccccc1)c1csc(Nc2ccc(C(=O)c3ccccc3)cc2)n1 (stereo unspecified),"inconclusive [inhibitor, partial curve, poor fit]",–
COc1cccc(Nc2ncccc2C(=O)NCc2ccccc2)c1,"inconclusive [inhibitor, single point]",–
Cc1cc(C)cc(Oc2nc(C(F)(F)F)nc3ccccc23)c1,"inconclusive [inhibitor, single point]",–
COc1cc(NC(=O)c2noc3c2CC(C)CC3)c(OC)cc1Cl (stereo unspecified),–,inactive: -3.55%
CC(C)CC(=O)NC(=S)NCc1ccccc1,"inconclusive [inhibitor, single point]",–
O=C(NCCS(=O)(=O)N1CCN(c2ccccc2)CC1)C12CC3CC(CC(C3)C1)C2,"inconclusive [inhibitor, single point]",–
CC(C)(C)c1nc(SCC(=O)Nc2nc3c(s2)CCCC3)c2ccccc2n1,"inconclusive [inhibitor, partial curve]",–
CCc1ccc(NC(=O)c2cc(S(=O)(=O)NC3CCCCCC3)ccc2F)cc1,"inconclusive [inhibitor, partial curve, poor fit]",–
Cc1ccccc1CN(C)C(=O)CNC(=O)c1ccc2ccccc2c1,–,inconclusive: -34% [inhibitor]
Cc1nn(-c2ccccc2)c2c1N(CCCC(=O)NC(C)c1ccccc1)C(=O)CS2 (stereo unspecified),"inconclusive [inhibitor, single point]",–

Structure (SMILES),Potency,"activity change, negative = inhibition"
CN(C)CCCN=c1cc(-c2ccccc2)oc2ccc(Cl)cc12,"inconclusive [inhibitor, single point]",–
CC(C)Cc1cc(C(C)(C)C)ccc1OC(=S)N(C)C,"inconclusive [inhibitor, single point]",–
CCCCNc1c(-c2cccc(-c3ccc(OC)cc3)c2)nc2ccc(C)cn12,"inconclusive [inhibitor, partial curve, poor fit]",–
CCOC(=O)c1cc(C#N)c(SC)nc1-c1ccccc1,"inconclusive [inhibitor, single point]",–
Nc1c(Cl)ncnc1N/N=C/c1ccnc2ccccc12,–,inactive: 11.9%
O=C(Cn1c(=O)n(Cc2ccccc2)c(=O)c2ccccc21)NCc1ccco1,"inconclusive [inhibitor, single point]",–
OCCN1CCN(c2cc(-c3ccc(CO)cc3)nc3ccnn23)CC1,–,inactive: 12.3%
COc1ccc(Cc2noc(CN3CCN(Cc4cccc(Cl)c4)CC3)n2)cc1OC,"inconclusive [inhibitor, partial curve, poor fit]",–
CCCN(CCC)C(=O)CC(c1ccc(F)cc1)c1ccco1 (stereo unspecified),"inconclusive [inhibitor, single point]",–
CCn1cc(/C=C/C(=O)Nc2c(C)nn(Cc3ccccc3C)c2C)cn1,–,inactive: 116%
COc1ccc(C(=O)CN2C(=O)NC3(CCCc4ccccc43)C2=O)cc1 (stereo unspecified),"inconclusive [inhibitor, partial curve, poor fit]",–
S=C(Nc1ccccn1)c1ccccn1,active: 0.891 µM,–
CCN1CCN(c2ccc(NC(=O)c3ccc4c(c3)[nH]c(=O)n4Cc3ccc(F)cc3)cc2)CC1,"inconclusive [inhibitor, single point]",–
CCCNCC1C(Oc2ccc(Cl)cc2Cl)C(=O)N1c1cccc(C)c1C (stereo unspecified),"inconclusive [inhibitor, partial curve, poor fit]",–
COc1ccc(-c2cc(NC(C)=O)c3ncc(-c4cc(OC)c(OC)c(OC)c4)n3c2)cn1,"inconclusive [inhibitor, partial curve, poor fit]",–
COc1ccccc1C(=O)NC(CCSC)C(=O)N1CCC(Cc2ccccc2)CC1 (stereo unspecified),"inconclusive [inhibitor, partial curve, poor fit]",–
NC(=O)c1c(NC(=O)C2COc3ccccc3O2)sc2c1CCN(Cc1ccccc1)C2 (stereo unspecified),–,inactive: -14.4%
Cc1cccc(NC(=O)c2ccc(C(=O)c3ccccc3)cc2)n1,"inconclusive [inhibitor, single point]",–
CC(=O)Cn1ncc(Br)c(Br)c1=O,"inconclusive [inhibitor, single point]",–
C=CCn1c(O)c(N=NC(=S)Nc2ccc(OC)cc2)c2ccccc21,"inconclusive [inhibitor, single point]",–
Cc1ccccc1-c1nc(Cc2ccc(Cl)cc2)no1,"inconclusive [inhibitor, single point]",–

Structure (SMILES),Potency,"activity change, negative = inhibition"
S=C(N/N=C/c1ccc2c(c1)OCO2)NC1CC2CCC1C2 (stereo unspecified),"inconclusive [inhibitor, single point]",–
CCCc1cc(-c2nc(N)ncc2-c2csc(C)n2)c(O)cc1OC,–,inactive: 16.6%
O=C(COc1ccccc1Cl)NC(=O)NC1CCCCC1,"inconclusive [inhibitor, single point]",–
Cc1cccc(N(CC(=O)NC2CCCC2)C(=O)c2nsc(Cl)c2Cl)c1C,"inconclusive [inhibitor, partial curve, poor fit]",–
CCc1ccccc1Nc1nn2c(=O)c3ccc(C(=O)NCc4ccccn4)cc3nc2s1,"inconclusive [inhibitor, full curve, poor fit]",–
CSc1cccc(NC(=S)NC(=O)CCc2ccccc2)c1,"inconclusive [inhibitor, partial curve, poor fit]",–
O=C(CCCN1C(=O)/C(=C/c2cccc(Br)c2)SC1=S)Nc1ccccn1,–,inactive: 0%
O=C(CCNc1cc(Cl)cc(Cl)c1)c1cccs1,"inconclusive [inhibitor, partial curve, poor fit]",–
CC1(C)CC[C@]2(C(=O)O)CC[C@]3(C)C(=CC[C@@H]4[C@@]5(C)CC[C@H](O[C@@H]6O[C@H](C(=O)O)[C@@H](O)[C@H](O[C@@H]7OC[C@H](O)[C@H](O)[C@H]7O)[C@H]6O)C(C)(C)[C@@H]5CC[C@]43C)[C@@H]2C1,"inconclusive [inhibitor, single point]",–
CCN(CC)CCOC(=O)c1ccc(NC(=O)/C=C/c2cccs2)cc1,"inconclusive [inhibitor, single point]",–
Cc1c(C(=O)OC(C)C)sc(NC(=O)C2CCCO2)c1C(=O)OC(C)C (stereo unspecified),"inconclusive [inhibitor, single point]",–
Cc1ccc(S(=O)(=O)Nc2nc3ccccc3nc2Nc2cccc(S(=O)(=O)N3CCCC3)c2)cc1,"inconclusive [inhibitor, full curve, poor fit]",–
O=C(Cn1cnc2ccccc2c1=O)Nc1cccc(S(=O)(=O)N2CCCCC2)c1,"inconclusive [inhibitor, partial curve, poor fit]",–
COc1ccccc1NC(=S)N1CCN(c2cccc(C)c2C)CC1,"inconclusive [inhibitor, partial curve, poor fit]",–
CCCCSc1n[nH]c(=S)c2nc[nH]c12,–,inactive: -18.4%
CN(c1ccc(F)cc1)S(=O)(=O)N1CCCC(C(=O)NCc2ccccc2Cl)C1 (stereo unspecified),"inconclusive [inhibitor, single point]",–
COc1c(/C=N/NC(N)=S)c(C)nn1-c1ccccc1,"inconclusive [inhibitor, single point]",–
CC1CN(C(=O)CCC(=O)N2CCN(c3cccc(C(F)(F)F)c3)CC2)c2ccccc2O1 (stereo unspecified),"inconclusive [inhibitor, partial curve, poor fit]",–
COc1cc(C)c(Br)cc1S(=O)(=O)N1CCCC1,"inconclusive [inhibitor, single point]",–
